Measurements taken from the supplement of paper PMC11417369.
± gives the standard deviation of the averaged measurements. Some of the results follow.

test system: PfAP2-LT AP2 domain (GST-tagged); assay: gcPBM binding intensity (ln(normalized median fluorescence intensity)); higher = stronger DNA binding
How it was run: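 An Agilent 4 × 180k array carrying primer-extended double-stranded 36-bp intergenic genomic probes and negative controls received GST-tagged P. falciparum DNA-binding domains expressed in E. coli, about 25 μg on average, for 1 h. The binding buffer contained 1× PBS, 1% milk, 0.2 mg/ml BSA, 0.5% salmon testes DNA and 0.03% Triton X-100. Binding intensity is the top Masliner-normalised natural-log median intensity across replicate spots of either probe orientation, read after Alexa488 anti-GST antibody staining and a 488 nm scan.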

Sequence	gcPBM binding intensity (ln)
GGCATATATATATGCACACATACATAAATACATGTG [CACACA_site5999]	9.85 ± 0.41
AAAATAATTATGAATTGTACAGGTTTTTTTTTTTTT [XGTACX_site220]	8.59 ± 0.35
GGAAAAAAAAAAAAAAAACACACGGTACATTCAAAC [CACACA_site2715]	8.96 ± 0.47
AAAAAATTTTTAAGCACACACATAGATAATATATAT [CACACA_site1555]	9.14 ± 0.4
TCTACAATTATAATTACACACTATAAAAAAGAAAGA [CACACA_site2984]	8.69 ± 0.42
ATTTTTTTTTTTTTTTTTTTTTTTTTTTGATTTGTG [CACACA_negctrl_site1391]	8.51 ± 0.66
AAAAATAGGAACCAATATCCAACGTGACTTTATAAT [CACACA_negctrl_site1011]	8.95 ± 0.47
TACAATCTAAAATACACACACACAAACATATATTTA [CACACA_site3702]	9.85 ± 0.38
AATAAATAAATATATACACACATATATATATAATAT [CACACA_site921]	9.02 ± 0.41
TGAAAAAATATAAAATATAAAATAAAAAATATAAAA [GTGCAC_negctrl_site536]	8.6 ± 0.49
AAGATATATATAGAAAGTACTTATATTTGTATAATT [XGTACX_site8855]	8.74 ± 0.47
ATATTAATATATATGTTTTATTACCATTTTATGTAT [CACACA_negctrl_site1761]	8.86 ± 0.47
TATAAAAATATATTTACACACTATATATATCGAAAG [CACACA_site1700]	8.72 ± 0.36
ATGGTTTAGTTATATACACACTCGAAAATAACGACA [CACACA_site7520]	8.82 ± 0.26
ATATATTTTCAAAAAAGTAAATCAAAATAAATATAT [TGCATGCA_negctrl_site319]	8.5 ± 0.37
TCCAAATACAACTACACACAAACAAAAATTATATAT [CACACA_site881]	9.3 ± 0.42
TTTTTTTTAAGAGATAGTACATAAATATTATAATAT [XGTACX_site4685]	8.25 ± 0.44
AAAATTTTTCTTAAAGCATGCACAATTAAGAAGACG [TGCATGCA_site883]	8.71 ± 0.35
TTAAAATTAATTCACCAGTATTAAAATAAAAACGAA [CACACA_negctrl_site1428]	8.61 ± 0.45

Sequence	gcPBM binding intensity (ln)
AAATAAAATTTTATGTGTACGCAAAAAGTTGTAAGC [XGTACX_site8911]	8.96 ± 0.45
CATATATATATATATACACACATATATATTTTCTTT [CACACA_site1457]	9.22 ± 0.28
AAAAAAAAAAATATCACACACACATAAATATAAACA [CACACA_site7138]	9.74 ± 0.28
AAAGTAGGCTTATATGCACACTTTGAAATATTATAA [CACACA_site5117]	8.76 ± 0.47
CAATATTATATATATACACACATAATCTGTAAAAAC [CACACA_site1068]	9.09 ± 0.45
ATTATACAAAATGGTAAGGAAAAGGAAATTTTTTTT [CACACA_negctrl_site1090]	8.49 ± 0.54
TTATTTTATTTTAAAAAAAACAATATAAATTCAAAG [GTGCAC_negctrl_site57]	7.98 ± 0.44
TATTTATAAATTTACACACACACATGGGAACATAAA [CACACA_site5111]	9.51 ± 0.18
ATAAAAATTGATTATACACACGCGCACCCACAACAA [CACACA_site3536]	9.52 ± 0.28
ATGTCAAATTTTTGTGCACACATATATAGTTATTAT [CACACA_site2242]	9.37 ± 0.42
TATATATATCAGCAATGTACACAATGCATATTATAT [XGTACX_site4836]	8.79 ± 0.36
TAAGGATAAATAAAATGAAATGAAATAAATAAATGA [XGTACX_negctrl_site539]	8.63 ± 0.5
TTTGTTTTATGTGGTTGTACACAAATACAATTTAAA [XGTACX_site5156]	8.38 ± 0.43
TTATAATAAATATTTATTATATATAATATATATTAC [CACACA_negctrl_site1802]	8.49 ± 0.47
TATATTATATATTTATGTACGTATTTGTAAAAAGAT [XGTACX_site3444]	8.55 ± 0.32
TTTTTTATTAAATATATATAATAATAATAATTTGTA [CACACA_negctrl_site1719]	8.03 ± 0.33
GTTTCCTTAATATTCACACACATATCTATAATATAT [CACACA_site6959]	9.23 ± 0.4
ATAATAATTATATCAGTGCGCATATATATTTATTTA	8.93 ± 0.4
TCATAGCACAAAAAATGTACTTATTATTTAATATTT [XGTACX_site5687]	8.47 ± 0.43

Sequence	gcPBM binding intensity (ln)
ATGTGATAATTTAATAGTACATAACAGTTTAACAAT [XGTACX_site5854]	8.99 ± 0.51
CAAACAAATTGTGAAACACACATATTTATATTTATA [CACACA_site7030]	8.66 ± 0.44
TTATAAAATAAACTTACACACATGAAATATTATAGT [CACACA_site7000]	8.91 ± 0.38
TTTATATGCAATTAAGTGCATAAGAAAAAAAAAGGA [GTGCAC_site9966]	8.6 ± 0.42
TATCAGTATACAACAACACACATAATGTTTGTCATC [CACACA_site2980]	9.06 ± 0.42
CACTTAAAAAAAATACGTACACATATATATATATAT [XGTACX_site2054]	9.58 ± 0.28
CAAAAATAAATATAAACACACAATAAATAAATAAAT [CACACA_site891]	9.12 ± 0.46
TGAATTGTAATTTATAATATACGTGGTTTCTACTTA [CACACA_negctrl_site559]	8.66 ± 0.44
ATTTAATAACGGCATGCATGTCCTTATATAAATTTA [TGCATGCA_site1012]	8.77 ± 0.37
TATTATATATTATATAGTACATATTTATGTAAGAGG [XGTACX_site3099]	8.85 ± 0.54
CCTTACCAAATAATATGTACACATTTAATGTTATAT [XGTACX_site7840]	8.84 ± 0.35
CAAAATTAATAAGTCACACACACATATATAATATAT [CACACA_site798]	9.57 ± 0.33
TATAAAAATATATGCACACAAATAAAAAATTATATA [CACACA_site3629]	8.96 ± 0.47
TATATTTATACAATATGTACATATTATATATATATA [XGTACX_site3098]	8.78 ± 0.33
ATGGTATCTTTTAGAAGTACATCATGATAATAATTT [XGTACX_site5544]	8.54 ± 0.42
GATCATAATATTTAAAAGAATATATATAAAAAGGAA [XGTACX_negctrl_site310]	8.6 ± 0.45
GTATTAATTTATATATGTACATATGTGATATATATA [XGTACX_site5825]	8.86 ± 0.28
TGGAATAAAAAAAGGAGTACAATTAATTATTCTTAA [XGTACX_site8299]	8.48 ± 0.45
